# Experimental data reported in the supplement of paper PMC8728848.
# This is one part of the list.
# What was measured:
# Test in all cases: glycan array binding signal (z-score within array); higher = stronger binding
# Settings in all cases: glycan notation: IUPAC condensed, linker removed
# [1] = target: Neu5Ac(a2-6)Gal(b1-4)GlcNAc(b1-2)Man(a1-3)[Neu5Ac(a2-6)Gal(b1-4)GlcNAc(b1-2)Man(a1-6)]Man(b1-4)GlcNAc(b1-4)GlcNAc
# Procedure, shortened: (§1)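 Arrays were curated from the Consortium for Functional Glycomics database, 3228 in total, and kept only where the protein sequence was available. Binding is expressed as a within-array Z-score. This score was averaged across arrays of the same protein sequence at different concentrations or buffers and across linkers, and negative values can be read as non-binding.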
# [2] = target: Neu5Ac(a2-6)Gal(b1-4)GlcNAc(b1-2)Man(a1-6)Man(b1-4)GlcNAc(b1-4)GlcNAc
# Procedure, shortened: as §1
# [3] = target: Neu5Ac(a2-6)Gal(b1-4)GlcNAc(b1-2)Man(a1-6)[Gal(b1-4)GlcNAc(b1-2)Man(a1-3)]Man(b1-4)GlcNAc(b1-4)GlcNAc
# Procedure, shortened: as §1
# [4] = target: Neu5Ac(a2-6)Gal(b1-4)GlcNAc(b1-2)Man(a1-6)[GlcNAc(b1-2)Man(a1-3)]Man(b1-4)GlcNAc(b1-4)GlcNAc
# Procedure, shortened: as §1
# [5] = target: Neu5Ac(a2-6)Gal(b1-4)GlcNAc(b1-2)Man(a1-6)[Man(a1-3)]Man(b1-4)GlcNAc(b1-4)GlcNAc
# Procedure, shortened: as §1
# [6] = target: Neu5Ac(a2-6)Gal(b1-4)GlcNAc(b1-3)Gal(b1-3)GlcNAc
# Procedure, shortened: as §1
# [7] = target: Neu5Ac(a2-6)Gal(b1-4)GlcNAc(b1-3)Gal(b1-4)GlcNAc
# Procedure, shortened: as §1
# [8] = target: Neu5Ac(a2-6)Gal(b1-4)GlcNAc(b1-3)Gal(b1-4)GlcNAc(b1-3)Gal(b1-4)GlcNAc
# Procedure, shortened: as §1
# [9] = target: Neu5Ac(a2-6)Gal(b1-4)GlcNAc(b1-3)Gal(b1-4)[Fuc(a1-3)]GlcNAc(b1-3)Gal(b1-4)[Fuc(a1-3)]GlcNAc
# Procedure, shortened: as §1
# [10] = target: Neu5Ac(a2-6)Gal(b1-4)GlcNAc(b1-3)GalNAc
# Procedure, shortened: as §1
# [11] = target: Neu5Ac(a2-6)Gal(b1-4)GlcNAc6S
# Procedure, shortened: as §1
# Neu5Ac(a2-6)GalNAc = target: Neu5Ac(a2-6)GalNAc
# Procedure, shortened: as §1
# [12] = target: Neu5Ac(a2-6)GalNAc(b1-4)GlcNAc
# Procedure, shortened: as §1
# [13] = target: Neu5Ac(a2-6)GlcNAc(b1-4)GlcNAc
# Procedure, shortened: as §1
# [14] = target: Neu5Ac(a2-6)GlcNAc(b1-4)GlcNAc(b1-4)GlcNAc
# Procedure, shortened: as §1
# Neu5Ac(a2-8)Neu5Ac = target: Neu5Ac(a2-8)Neu5Ac
# Procedure, shortened: as §1
# [15] = target: Neu5Ac(a2-8)Neu5Ac(a2-3)Gal(b1-4)Glc
# Procedure, shortened: as §1
# [16] = target: Neu5Ac(a2-8)Neu5Ac(a2-3)[GalNAc(b1-4)]Gal(b1-4)Glc
# Procedure, shortened: as §1
# [17] = target: Neu5Ac(a2-8)Neu5Ac(a2-8)Neu5Ac
# Procedure, shortened: as §1
# [18] = target: Neu5Ac(a2-8)Neu5Ac(a2-8)Neu5Ac(a2-3)Gal(b1-4)Glc
# Procedure, shortened: as §1
# [19] = target: Neu5Ac(a2-8)Neu5Ac(a2-8)Neu5Ac(a2-3)[GalNAc(b1-4)]Gal(b1-4)Glc
# Procedure, shortened: as §1
# [20] = target: Neu5Ac(a2-8)Neu5Ac(a2-8)Neu5Ac(a2-8)Neu5Ac(a2-3)[GalNAc(b1-4)]Gal(b1-4)Glc
# Procedure, shortened: as §1
# [21] = target: Neu5Ac(b2-6)Gal(b1-4)GlcNAc
# Procedure, shortened: as §1
# Neu5Ac(b2-6)GalNAc = target: Neu5Ac(b2-6)GalNAc
# Procedure, shortened: as §1
# [22] = target: Neu5Ac9Ac(a2-3)Gal(b1-3)GlcNAc
# Procedure, shortened: as §1
# [23] = target: Neu5Ac9Ac(a2-3)Gal(b1-4)GlcNAc
# Procedure, shortened: as §1
# [24] = target: Neu5Ac9Ac(a2-6)Gal(b1-4)GlcNAc
# Procedure, shortened: as §1
# [25] = target: Neu5Gc(a2-3)Gal(b1-3)GlcNAc
# Procedure, shortened: as §1
# [26] = target: Neu5Gc(a2-3)Gal(b1-3)[Fuc(a1-4)]GlcNAc
# Procedure, shortened: as §1
# Neu5Gc(a2-3)Gal(b1-4)Glc = target: Neu5Gc(a2-3)Gal(b1-4)Glc
# Procedure, shortened: as §1
# [27] = target: Neu5Gc(a2-3)Gal(b1-4)GlcNAc
# Procedure, shortened: as §1
# [28] = target: Neu5Gc(a2-3)Gal(b1-4)[Fuc(a1-3)]GlcNAc
# Procedure, shortened: as §1
# [29] = target: Neu5Gc(a2-6)Gal(b1-4)GlcNAc
# Procedure, shortened: as §1
# Neu5Gc(a2-6)GalNAc = target: Neu5Gc(a2-6)GalNAc
# Procedure, shortened: as §1
# [30] = target: Neu5Gc(b2-6)Gal(b1-4)GlcNAc
# Procedure, shortened: as §1
binder,measurement,setting,value
GH98CBM51-1 (Streptococcus pneumoniae) (protein) MTYLSDMDWSSATHGDIDKTKTVQKDAPFTTGNKGEHTKISLLTSDDKVKYFDKGIGTVADSPSVISYDISGQGFEKFETYIGIDQSANSSRSDHAVVDRIEIEIDGKVVYSSSVTNPEGFRYNTQAQFISVTIPQNAKKISLKSFAGEHTWGDEVVFADAKLIKTVST,glycan array binding signal (z-score),[1],-0.176
same,glycan array binding signal (z-score),[2],-0.187
same,glycan array binding signal (z-score),[3],-0.194
same,glycan array binding signal (z-score),[4],-0.188
same,glycan array binding signal (z-score),[5],-0.188
same,glycan array binding signal (z-score),[6],-0.192
same,glycan array binding signal (z-score),[7],-0.142
same,glycan array binding signal (z-score),[8],-0.189
same,glycan array binding signal (z-score),[9],-0.186
same,glycan array binding signal (z-score),[10],-0.191
same,glycan array binding signal (z-score),[11],-0.192
same,glycan array binding signal (z-score),Neu5Ac(a2-6)GalNAc,-0.136
same,glycan array binding signal (z-score),[12],-0.188
same,glycan array binding signal (z-score),[13],-0.184
same,glycan array binding signal (z-score),[14],-0.193
same,glycan array binding signal (z-score),Neu5Ac(a2-8)Neu5Ac,-0.182
same,glycan array binding signal (z-score),[15],-0.187
same,glycan array binding signal (z-score),[16],-0.192
same,glycan array binding signal (z-score),[17],-0.191
same,glycan array binding signal (z-score),[18],-0.187
same,glycan array binding signal (z-score),[19],-0.179
same,glycan array binding signal (z-score),[20],-0.184
same,glycan array binding signal (z-score),[21],-0.181
same,glycan array binding signal (z-score),Neu5Ac(b2-6)GalNAc,-0.193
same,glycan array binding signal (z-score),[22],-0.187
same,glycan array binding signal (z-score),[23],-0.19
same,glycan array binding signal (z-score),[24],-0.196
same,glycan array binding signal (z-score),[25],-0.187
same,glycan array binding signal (z-score),[26],-0.189
same,glycan array binding signal (z-score),Neu5Gc(a2-3)Gal(b1-4)Glc,-0.19
same,glycan array binding signal (z-score),[27],-0.185
same,glycan array binding signal (z-score),[28],-0.182
same,glycan array binding signal (z-score),[29],-0.188
same,glycan array binding signal (z-score),Neu5Gc(a2-6)GalNAc,-0.191
same,glycan array binding signal (z-score),[30],-0.184
